Laboratory results reported in publication PMC4336329 (PLoS ONE, 2015).
Among all 310,000 compounds or so, about 2,200 (0.71%) showed an effect of 50% or more. Effects have a minus sign here. The list shows a part of the results.

Each compound was assayed against human ether-à-go-go-related gene (hERG) potassium channel (human, UniProt Q12809) (assay: primary screen, population patch clamp on CHO cells stably expressing hERG).
Sequence of human ether-à-go-go-related gene (hERG) potassium channel (Q12809 whole entry, looked up): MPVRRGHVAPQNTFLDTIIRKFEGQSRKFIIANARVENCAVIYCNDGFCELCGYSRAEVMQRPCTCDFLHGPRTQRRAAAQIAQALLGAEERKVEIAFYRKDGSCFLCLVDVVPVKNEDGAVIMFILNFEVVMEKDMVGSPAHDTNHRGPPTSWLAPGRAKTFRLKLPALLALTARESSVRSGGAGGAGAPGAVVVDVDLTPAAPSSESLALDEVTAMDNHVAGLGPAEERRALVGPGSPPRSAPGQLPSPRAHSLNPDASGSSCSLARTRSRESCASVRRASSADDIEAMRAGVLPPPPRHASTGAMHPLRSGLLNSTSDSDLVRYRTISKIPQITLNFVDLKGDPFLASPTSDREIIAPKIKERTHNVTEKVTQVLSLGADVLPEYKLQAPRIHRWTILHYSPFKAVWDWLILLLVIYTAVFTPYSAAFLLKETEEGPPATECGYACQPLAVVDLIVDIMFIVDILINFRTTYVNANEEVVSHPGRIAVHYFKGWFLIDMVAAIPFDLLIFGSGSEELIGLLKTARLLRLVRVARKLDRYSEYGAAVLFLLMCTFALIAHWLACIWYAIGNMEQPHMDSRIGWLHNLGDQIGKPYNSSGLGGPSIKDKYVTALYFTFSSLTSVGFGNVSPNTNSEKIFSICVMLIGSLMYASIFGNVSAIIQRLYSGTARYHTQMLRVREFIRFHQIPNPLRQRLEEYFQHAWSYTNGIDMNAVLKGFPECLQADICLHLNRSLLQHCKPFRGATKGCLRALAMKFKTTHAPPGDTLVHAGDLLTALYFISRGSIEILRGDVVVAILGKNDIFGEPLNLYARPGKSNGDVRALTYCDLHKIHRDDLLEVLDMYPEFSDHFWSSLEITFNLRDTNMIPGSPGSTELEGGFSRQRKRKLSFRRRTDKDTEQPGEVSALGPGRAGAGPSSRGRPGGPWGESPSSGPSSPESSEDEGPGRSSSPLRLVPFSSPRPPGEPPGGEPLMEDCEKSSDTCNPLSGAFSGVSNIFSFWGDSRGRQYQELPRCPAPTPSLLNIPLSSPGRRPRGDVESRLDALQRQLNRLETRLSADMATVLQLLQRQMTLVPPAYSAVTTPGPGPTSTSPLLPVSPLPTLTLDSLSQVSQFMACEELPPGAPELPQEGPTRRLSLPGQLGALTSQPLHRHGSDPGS

Structure (SMILES) | hERG current change (%, negative = inhibition) at 1uM
O=C(N/N=C/c1cc2c(c([N+](=O)[O-])c1)OCO2)c1ccncc1 | 13.8%
N#Cc1c(-c2cccs2)cc(-c2cccs2)[nH]c1=O | 10.5%
Cc1ccc(C)c(NC(=S)c2nc3ccccc3s2)c1 | 14.5%
Cc1ccc(S(=O)(=O)N(CCCN2CCCC2=O)Cc2cc3c(C)ccc(C)c3[nH]c2=O)cc1 | -19.9%
COC(=O)C1Cc2ccccc2CN1S(=O)(=O)c1ccc(C)cc1 (stereo not drawn) | 15.7%
CCS(=O)(=O)NCC(c1ccco1)N1CCN(c2ccccc2F)CC1 (stereo not drawn) | 0.269%
CN1CCN(C(=O)c2ccc(C(C)(C)C)cc2)CC1 | -2.13%
COC(=O)C(=CC(=CN(C)C)C=C(C(=O)OC)C(=O)OC)C(=O)OC | 15.4%
CCOC(=O)C(=O)Nc1ccc(Oc2ccccc2)cc1 | 9.34%
CC(=O)Nc1cccc(NC(=O)CSc2nnc(Cc3cccn3C)n2-c2ccc(C)cc2)c1 | 6.43%
Cc1ccc(NC(=O)c2ccc3c(c2)C(=O)N(CC2CCCO2)C3=O)cc1C (stereo not drawn) | 2.94%
CN(c1ccccc1C(=O)NC1CC2CCC1C2)S(=O)(=O)c1ccccc1 (stereo not drawn) | 4.75%
COc1cc(OC)c2c(c1)OCC1CON(C)C21 (stereo not drawn) | 3.38%
CC(C)c1ccc(S(=O)(=O)c2cnc(=S)[nH]c2N)cc1 | 9.45%
O=[N+]([O-])c1ccc2cn[nH]c2c1 | 14.4%
COC(=O)CSc1nnc(-c2ccc3c(c2)OCO3)n1C | 21.3%
N#Cc1c(NC(=O)C2CCCO2)sc2c1CCCCCC2 (stereo not drawn) | 7.08%
COc1ccc(-n2cnnc2SCC(=O)N2CCN(S(=O)(=O)c3ccccc3)CC2)cc1 | 1.1%
C/C(=N\Nc1ccc2nncn2n1)c1ccc(Cl)s1 | -1.89%

Structure (SMILES) | hERG current change (%, negative = inhibition) at 1uM
CC(CC(=O)NCc1ccc(F)cc1)c1ccccc1 (stereo not drawn) | 11.1%
O=C(CS(=O)(=O)Cc1ccccc1)Nc1ccc(Br)cc1F | 11.9%
Oc1ccccc1-c1cc(-c2cccc(F)c2)n[nH]1 | -4.21%
Brc1ccc(CN2CCSCC2)cc1 | -30.8%
COc1ccc2c(CC(=O)Nc3ccc(OC)c(NS(=O)(=O)c4ccc(F)cc4)c3)coc2c1 | 9.87%
CC(C)CCOc1ccc(NC(=O)C2OC3OC(C)(C)OC3C3OC(C)(C)OC23)cc1 (stereo not drawn) | 14.6%
CCc1cc2c(=O)c(-c3nc4ccccc4n3C)c(CCCC(=O)O)oc2cc1OC(=O)C(C)(C)C | 14.8%
CN(CC(=O)Nc1ccc(F)cc1)C(=O)COC(=O)Cc1c(F)cccc1Cl | 6.13%
COC(=O)[C@@H](NC(=O)c1ccc(OC2CCN(Cc3ccccn3)CC2)cc1)C(C)C | 4.8%
COc1ccc(/C=C/C(=O)NCCc2ccc(S(N)(=O)=O)cc2)cc1 | 12.5%
CC(Cl)C(=O)c1c[nH]c2ccccc12 (stereo not drawn) | 16.5%
CC(=O)Nc1ccc(NC(=O)CSc2nc(=O)n3cccc(C)c3n2)cc1 | 10.9%
Cc1ccc(S(=O)(=O)NC(=O)NCc2ccc(Cl)cc2)cc1 | 10.1%
CC(C)(C)n1nc2c(c1NC(=O)c1ccc(S(=O)(=O)N3CCCC3)cc1)CS(=O)C2 (stereo not drawn) | 11%
Cc1onc(-c2ccc(Cl)cc2)c1-c1ccnc(SCC(=O)Nc2cc(Cl)cc(Cl)c2)n1 | 6.83%
CC(=O)Nc1sc2c(c1C(c1cccc(Cl)c1)N1CCN(CCO)CC1)CCCC2 (stereo not drawn) | -3.58%
CCc1ccc(Nc2ccc(S(=O)(=O)N3CCOCC3)cc2[N+](=O)[O-])cc1 | 1.27%
COc1ccc(CCn2c(C)cc(C(=O)CSc3nnnn3-c3ccccc3)c2C)cc1OC | 2.85%
Cc1cc2c(SCC(=O)NC3CCCC3)ncnc2s1 | 6.83%

Structure (SMILES) | hERG current change (%, negative = inhibition) at 1uM
Cc1ccc(C(=O)N(Cc2nc3ccccc3c(=O)[nH]2)C2CCCC2)cc1 | 13.2%
COc1cccc(-c2c(-c3cc(OC)cc(OC)c3)n(C)c3ccc(-c4cnc(OC)nc4)cc23)c1 | 14.5%
Brc1ccc(-c2nnc3ccc(Nc4ccccc4)nn23)cc1 | 15.3%
COc1ccc(/C=N\NC(=O)C2CCCC2)cc1Br | 16.6%
COc1cc(CNCc2cccnc2)ccc1OCc1ccccc1.Cl | -1.31%
CCCC(=O)NCc1nc2ccccc2n1CC(=O)c1ccccc1 | 3.78%
COc1cccc(N2CCN(C(=S)Nc3ccccc3OC)CC2)c1 | 14.2%
CCOC(=O)CSC1=C(C#N)C(c2ccccc2OC)CC(=O)N1 (stereo not drawn) | 9.93%
O=c1[nH]nc(-c2ccc(OCc3ccc(Cl)cc3Cl)cc2)o1 | 8.74%
CCOC(=O)c1cccc(NC(=O)CC2Oc3ccccc3NC2=O)c1 (stereo not drawn) | 8.69%
COc1ccc(-c2nnsc2N2C(=O)c3ccccc3C2=O)cc1 | 13.2%
c1ccc(C2CC3CC(c4ccco4)N2O3)cc1 (stereo not drawn) | 9.62%
COc1ccc(-n2c3c(cc(C(=O)NCC(=O)c4ccccc4)c2=O)C(=O)CC(C)(C)C3)cc1 | 4.25%
CC(C)c1ccc(Nc2ncccc2C(=O)O)cc1 | 11.2%
CC(=O)NCCCc1nc2ccccc2n1Cc1ccccc1F | 5.18%
Cc1ccc2c(c1)c1c(n2CC(O)Cn2c(C)nc3ccccc32)/C(=N\O)CCC1 (stereo not drawn) | 11.3%
Cn1c(=O)c2[nH]c(N=Nc3ccc(N)cc3N)nc2n(C)c1=O | 21%
COc1ccccc1NC(=O)C(C)OC(=O)CCNS(=O)(=O)c1cccc(C(F)(F)F)c1 (stereo not drawn) | -1.23%
Cc1ccc(-c2cc(-c3ccccc3)cc(-c3ccccc3)[n+]2-c2ccc(C(=O)O)cc2)cc1.[O-][Cl+3]([O-])([O-])[O-] | 7.88%
